Some of the results follow.
T1: UNK ZnF1-3 (human, UniProt Q9C0B0 31-174)
T1 sequence: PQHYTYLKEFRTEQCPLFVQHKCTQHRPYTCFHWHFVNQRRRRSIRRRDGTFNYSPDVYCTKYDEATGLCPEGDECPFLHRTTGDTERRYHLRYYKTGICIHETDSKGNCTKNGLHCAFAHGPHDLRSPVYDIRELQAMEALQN

B1: 172841103_172841223_927_CDS_ENSG00000128708_ENST00000264108|human|control|control (ssRNA)
RNA: GGGAGUUCUACAGUCCGACGAUCUGCCUCUAUCGCCAUAUCUUCAUUGAAUCCUUGCAUUAAUUUUUCCCGGGAAAAACAGGGCAAAUCUUGACAAAGCUUCACAAGCACAAAGUCUCGUAAUUUCACAUAGCUUUUGGAUGGCAACAGAGGAUUGAGCAUCA
B2: chr6:53156713:53156714:-_ENSG00000012660_ENST00000304434|hu_mus|FALSE|FALSE (ssRNA)
RNA: GGGAGUUCUACAGUCCGACGAUCAACAGAACAGACAAACGUAGGGAUGUAAUUGUCCAGGAGGAACCAUCCUUUGACUCUUGUAUCUCGGGGGCCCAGGAAGGCCUUGAAAUAGGUACUGAGUGACGCAUCGAAAUGUUCCAUCAACAGAGGAUUGAGCAUCA
B3: chr4:95690885:95690886:+_ENSMUSG00000028572_ENSMUST00000156910|mus_mus|mus_mus_mus_hu_False|1_108 (ssRNA)
RNA: GGGAGUUCUACAGUCCGACGAUCUUUAUUUUUAGAAAAAUACCAUGCUAAAAUAUUUUCAAAGGCUUAUUUUAUUUUACCAGAAGUCACAGGCAAGCAGACACUACAAGAAUAUAUGAAAAUGAAACUCAACAAUAAAAUGUACAACAGAGGAUUGAGCAUCA
B4: chr1:109605286:109605287:-_ENSG00000197780_ENST00000461096|hu_mus|hu_hu_hu_mus_True|28_108 (ssRNA)
RNA: GGGAGUUCUACAGUCCGACGAUCAAGAACAAUAACAACAUUCAGUAACCUCUUUAAAUGCAAUUAUCCUUAUUAUAAGCUAAGCAGAAUAAUAAUUUAAUACCGUAAGUAAAUACAACACAAAGCCUGAACCGCGAAAAUGGUCAACAGAGGAUUGAGCAUCA
B5: chr2:179515052:179515053:+_ENSMUSG00000000305_ENSMUST00000000314|mus_hu|mus_mus_mus_hu_False|1_78 (ssRNA)
RNA: GGGAGUUCUACAGUCCGACGAUCGCUGUCCCAUGCAGUCACCGUGAACGCCACCUGCUCUGAGGGGACCUGCAGCUCCCGGGUGGCGAAGACUGUCCCAUCUGCCCCAACUUUGAAGUCCAUGCUGUUGGUCUCAUACUGCAUCAACAGAGGAUUGAGCAUCA
B6: chr18:211299:211300:+_ENSG00000101557_ENST00000383589|hu_mus|FALSE|FALSE (ssRNA)
RNA: GGGAGUUCUACAGUCCGACGAUCAGAUUAUAGAAAUGUUCAACAACAACAACAAAAACAUUCACACCUAAGCAUAAAUAGCUAAAUUGAAGAUUACUGUUCACUUUCUUCUUCCAUUAUUUCAACUCUUCGAGGCCCAUAAAGCAACAGAGGAUUGAGCAUCA
B7: chrX:71549400:71549401:+_ENSMUSG00000019087_ENSMUST00000019231|mus_hu|mus_mus_mus_hu_False|28_58 (ssRNA)
RNA: GGGAGUUCUACAGUCCGACGAUCGCAGUAGGAAGAGGGAAGCUCUUCAGUCCAGUGCGCUGCAGGGUGGGAAAGCACAACCUAGACCACCGUCCCACCCUCAACCCUCUCAGGUGUACAGGGUCACACAAUCUGGGUCAAAGACAACAGAGGAUUGAGCAUCA
B8: chr22:32894248:32894249:+_ENSG00000100225_ENST00000397426|hu_hu|FALSE|FALSE (ssRNA)
RNA: GGGAGUUCUACAGUCCGACGAUCGGGAAGUGUUGGUCUUUGGUCAUAUUCACCCCCGAUAAUUCCUGGAGGAAGGCGGGAGCUAGGAAAUGGCCUAGGGUGCAAGGGGUUGGGAUAGAAUGGAAUGGUGUGAGUUGACGAUGGCAACAGAGGAUUGAGCAUCA
B9: 9335903_9336023_364_3pUTR_ENSG00000166471_ENST00000528080|human|control|control (ssRNA)
RNA: GGGAGUUCUACAGUCCGACGAUCCCCGCGUCCCCGCUGCCCCGUCCCCCACGGGGGUCGUGUGGUGAGCGCCCAACUGCGAUCGUUCGGCGACUCUGCCUUUCGCCAUGGCUGCUGCAAGGUGAAGGGAGCGGUGCGGUGCCGCAACAGAGGAUUGAGCAUCA
B10: chr4:148554787:148554788:-_ENSMUSG00000063077_ENSMUST00000060537|mus_mus|FALSE|FALSE (ssRNA)
RNA: GGGAGUUCUACAGUCCGACGAUCCUACAAGUCUUAGCACAAGAAUAAGAAGAGUCAGAGCCAUGGAGAGGGAACAGAGAGCUAGAGAAGUGCAGGGUGAGGAGGGAAAAGUCGUUAAGCCACAGGAUUACAUACAAGAAUAACCAACAGAGGAUUGAGCAUCA
B11: chr15:42709458:42709459:-_ENSG00000103994_ENST00000263805|hu_hu|FALSE|FALSE (ssRNA)
RNA: GGGAGUUCUACAGUCCGACGAUCUCACCAAGAAAGGGAAGAGAGUGGCCUGUGUGGGGGGCCAAUGUGAAAAUAGUUCAACUAAUGACUUCCCAACGUGGGAGGCAAAAAACUUCAUGAAUCAAUUUUGCUGUCAUCUUCAGCCAACAGAGGAUUGAGCAUCA
B12: chr14:62224477:62224478:+_ENSMUSG00000035235_ENSMUST00000039562|mus_mus|FALSE|FALSE (ssRNA)
RNA: GGGAGUUCUACAGUCCGACGAUCUUCACCAAAAAUGAAAAACCCAUCUGUCAUCUGUUCCCAGUAAAAAACAGAUUGUUCUAUAAAAUCAGCAGACUUAGUCAGGUAAGAAUUGAAGCUUGAAAGAUAGUCUUUCCAAGUUGCCAACAGAGGAUUGAGCAUCA
B13: chr12:54651456:54651457:-_ENSG00000094916_ENST00000209875|hu_hu|FALSE|FALSE (ssRNA)
RNA: GGGAGUUCUACAGUCCGACGAUCUGUCAGCUGUCCGCUUGGUUUUCUUUCCCAUGUCGCACACCGUUCCACCUGAAAGACUAAGGCCACCAGGUCCCCGGGAUUGAGAGUGAUCACUCACGCUAACGUCUGCCCUGUUCCUGUCAACAGAGGAUUGAGCAUCA
B14: chr10:61005495:61005496:+_ENSG00000165443_ENST00000486074|hu_mus|FALSE|FALSE (ssRNA)
RNA: GGGAGUUCUACAGUCCGACGAUCGGACAACCUGGGGACAUCGUUGAAAGUGGUGGACAAGGGCGGGCAAGAGGAGACACGGAAAGGCUCUGAAUGACAGAGUUUGCUUUUGGUGACAGCGGCAUAUGCAUGCUUCAGUGGGGACAACAGAGGAUUGAGCAUCA
B15: chr16:46836887:46836888:-_ENSG00000155330_ENST00000285697|hu_hu|FALSE|FALSE (ssRNA)
RNA: GGGAGUUCUACAGUCCGACGAUCUUCAGCAGAUUUUGCAAACAAGUAUCAGAGAAUAAGUCUUUGAUUGAUAAUUUUUCUAUUUAUUUCUGCCAAGGCGACUGAAAACACGAAAGCCUUUUCAUCAGACAGGUUAGCAUAGAUCAACAGAGGAUUGAGCAUCA
B16: chr6:134305517:134305518:+_ENSG00000028839_ENST00000367871|hu_mus|FALSE|FALSE (ssRNA)
RNA: GGGAGUUCUACAGUCCGACGAUCGUUACACACUGCCAAAACAUUCACCACCUUAAAAUCUGUGAAGAUGACCUGAAAACCUAGUUUCUGCAGACUACGGGCUAAACGUCUGGCACCAAAUUUAGCUUCUUCUUCACUUGUUGCCAACAGAGGAUUGAGCAUCA
B17: chr14:22137345:22137346:+_ENSMUSG00000039197_ENSMUST00000045376|mus_hu|motif|central (ssRNA)
RNA: GGGAGUUCUACAGUCCGACGAUCAAAAAGUAUAUCAACAUAAGGCAUAACUUUCAUCAAUGAUUCCUUGUAGAACUGGCGGAUAAACGGUGCAGAUAGAUUCAAAGUGAAAAUCCUGUUGUUUUCAGAAGCAUGGUGAGCCACCAACAGAGGAUUGAGCAUCA
B18: chr4:48249827:48249828:-_ENSMUSG00000028343_ENSMUST00000030028|mus_mus|motif|central (ssRNA)
RNA: GGGAGUUCUACAGUCCGACGAUCCUCAAAAAUUGGAUGCAACAUCUGGCUGAAACGACACCAGUCAGCAUAAAAAUUUACGGAAGCAACAUCAGCAUUAUUUAAAAUUUCAUCUAUAUUCUCUGAAUCAAGACUUGCUAUUUCCAACAGAGGAUUGAGCAUCA
B19: chr17:56552419:56552420:-_ENSMUSG00000013236_ENSMUST00000086828|mus_mus|mus_mus_mus_hu_False|18_108 (ssRNA)
RNA: GGGAGUUCUACAGUCCGACGAUCAAAGUUUUUUUCUUUUAAAAAAAAUGAAAUGUCACGGGAUACAGUUACACUGAGAGUUUUAAAAGAAAGCUGGAUUCUGGUCCCAGCCCAGUGGCAGGCAGGGGCAGAGCGGGGAGGAGCCAACAGAGGAUUGAGCAUCA
B20: chr2:217001844:217001845:+_ENSG00000079246_ENST00000392132|hu_hu|hu_hu_hu_mus_False|18_38 (ssRNA)
RNA: GGGAGUUCUACAGUCCGACGAUCACCAACUUGAGGAUUAGAUCUUUUGUCAUAAGCAUAUCGGACGAUGGCGACCAUGUUUAACUCAUCCAAAGCAUGAAUCAGGGAGGAAAGGGCAACUGCAGCUGCCUCAUCAUCCUUUGCCAACAGAGGAUUGAGCAUCA
B21: chr18:56819859:56819860:+_ENSG00000166562_ENST00000588875|hu_mus|hu_hu_hu_mus_True|38_108 (ssRNA)
RNA: GGGAGUUCUACAGUCCGACGAUCAACUUUGAUUACUCUGUGAACUAUCGGAAUGUCUCUUCCUUCAACCUUAAAAACAACUAUUUCACCAGCUCUGAUUGGGUCUUCCCGGAAAUUCGUGAGGAACAGCAGAUCUCCUCUGUGCAACAGAGGAUUGAGCAUCA
B22: chr17:49118984:49118985:-_ENSG00000008294_ENST00000510283|hu_mus|FALSE|FALSE (ssRNA)
RNA: GGGAGUUCUACAGUCCGACGAUCUCCUUUCUGAGUGUCAGGUGUAAGCAAUCCAUCUCCAGCAGGUAGAGGGAAAAUCCCUAAUGAUAUAGGACGUUCUUUUCUGAGUAUCCUUGGUAGGUUCUGCGUCAGCGCUGGCACCCCCAACAGAGGAUUGAGCAUCA

Biological target: T1, UNK ZnF1-3
Assay: nsRBNS (natural sequence RNA bind-n-seq); RBNS binding buffer (assumed for nsRBNS): 25 mM Tris pH 7.5, 150 mM KCl, 3 mM MgCl2, 0.01% Triton X-100, 500 ug/ml BSA, 20 U/ml SUPERase-In, 4 C; UNK is unkempt and MSI1 is Musashi-1; names of the RNAs are library labels; protein concentration not given here; high values mean tight binding

| Binder | binding signal [enrichment R] |
| --- | --- |
| B1 | 1.17 |
| B2 | 0.971 |
| B3 | 1.45 |
| B4 | 1.16 |
| B5 | 0.706 |
| B6 | 0.538 |
| B7 | 0.903 |
| B8 | 1.32 |
| B9 | 0.79 |
| B10 | 2.81 |
| B11 | 1.51 |
| B12 | 1.1 |
| B13 | 1.03 |
| B14 | 1.33 |
| B15 | 0.904 |
| B16 | 0.972 |
| B17 | 1.21 |
| B18 | 2.1 |
| B19 | 1.56 |
| B20 | 1.41 |
| B21 | 0.899 |
| B22 | 0.73 |
